We go through 167 variants from the RNAGym collection of RNA variant scans (doi:10.7554/elife.90254).

First the molecules themselves.
B1: LINE1-mini (parent)
chain: GGCAGAGCUCAACACAGCGUGGCAAAGUGGCUGUGGCUAGACUGCC

The source gives no read counts; variants with many changes may rest on few reads.

The data set covers variants of B1. Kind of data set: self-cleavage, relative activity (ratio to wild type); higher = more cleavage; in vitro, sequencing; the parent is a self-cleaving ribozyme.
For C15A G17A C37U C42U, the self-cleavage stood at 0.03.

Consider C15A A16G C18U G40A, for which the self-cleavage came out at 0.02.

Consider C15A C18G G22C C42G, for which the self-cleavage is 0.05.

For A14U C15A C18A C31G A39C, the self-cleavage amounted to 0.02.

On to A14U G19C C31A, for which the self-cleavage came out at 0.06.

In the case of A14U C23U C37U G44C, the self-cleavage was 0.06.

C15A A16G G30U: the self-cleavage amounted to 0.17.

Consider C15A C18G G27U G36U, for which the self-cleavage is 0.09.

Take C15A G22U A24G U32A: the self-cleavage is 0.

As to C15A C23U G30C, the self-cleavage came out at 0.09.

Regarding A14U G21U A25G G44C C45A, the self-cleavage is 0.06.

Take C15A A16U G33U C37A A39C C42A: the self-cleavage stood at 0.

Regarding C15A C18G G35U, the self-cleavage was found to be 0.07.

As for C15A G35A C46A, the self-cleavage stood at 0.02.

In the case of C15A A16U C23A G27C, the self-cleavage is 0.11.

For the variant C15A C23A G40C, the self-cleavage was found to be 0.12.

In the case of C15A A25U C42U, the self-cleavage amounted to 0.05.

Take C15A A41U C46A: the self-cleavage worked out at 0.06.

Turning to A14U C15U G22A G30C G36C C37U C42U, the self-cleavage turned out to be 0.04.

For C15A G27U G36C A41U, the self-cleavage came out at 0.09.

Regarding A14U G19U C31U U34A A41C C45A, the self-cleavage worked out at 0.

As to A14U A16C A26U G33C, the self-cleavage turned out to be 0.01.

In the case of C15A G35A G36A, the self-cleavage stood at 0.06.

A14U C31G C45A: the self-cleavage came to 0.

A14U A16U A24U: the self-cleavage was 0.03.

Regarding A14U G22A A26C, the self-cleavage came out at 0.8.

As for A14U A26U G30C G44U, the self-cleavage came out at 0.02.

For the variant C15A G19C G21A G44U, the self-cleavage is 0.05.

In the case of C15A G21U U32A, the self-cleavage worked out at 0.01.

With C15A G36C C45U, the self-cleavage was determined as 0.01.

Turning to A14U A24U G44C, the self-cleavage was 0.06.

For the variant A14U C18G G22U, the self-cleavage stood at 0.07.

For the variant A14U G21A C46A, the self-cleavage turned out to be 0.19.

Turning to C15A G17U C37U, the self-cleavage was 0.

Regarding C15A C18U A25C G33A G35A, the self-cleavage worked out at 0.04.

On to C15A G22U U38A G40A, for which the self-cleavage amounted to 0.17.

For the variant A14U C15A U20C G21C A41C, the self-cleavage was determined as 0.

Regarding C15A A26G C37A C46U, the self-cleavage turned out to be 0.04.

For the variant C15A G22A G35U U38G, the self-cleavage came to 0.12.

Regarding C15A G27U U34C, the self-cleavage was 0.03.

Regarding C15A G30C C42U, the self-cleavage was determined as 0.07.

As to A14U G22U C46U, the self-cleavage worked out at 1.32.

For A14U G27C U34G G44C, the self-cleavage was determined as 0.26.

Take A14U A16C G19A: the self-cleavage is 0.1.

A14U G19U G22A: the self-cleavage turned out to be 0.67.

As to C15A G21U G30U C46A, the self-cleavage was 0.03.

In the case of A14U G21U U28C, the self-cleavage came to 0.75.

With A14U G21U G27U, the self-cleavage was 0.15.

As for C15A A16C C37U G44C, the self-cleavage was 0.

For the variant A14U C23A G35U, the self-cleavage came to 0.07.

On to A14G U38C U43G, for which the self-cleavage is 0.

On to C15A U20A U38C, for which the self-cleavage came out at 0.03.

With A14U U28A G33C U43A, the self-cleavage is 0.

For C15A G21U G27A, the self-cleavage turned out to be 0.04.

Consider A14U G35C C42U, for which the self-cleavage worked out at 0.16.

Turning to C15A G30C C31A C37A, the self-cleavage was determined as 0.12.

A14U U20A U34A: the self-cleavage turned out to be 1.19.

For the variant C15A G17A G30A, the self-cleavage was 0.02.

For the variant A14U C31A A41C, the self-cleavage came out at 0.01.

Consider C15A C31G U34C C45U, for which the self-cleavage is 0.13.

A14U C15U C18A U34C C45G: the self-cleavage worked out at 0.02.

Take A14U G21U C23A A26U C37U A39C: the self-cleavage was determined as 0.05.

Consider A14U A24C C46A, for which the self-cleavage amounted to 0.05.

As for C15A A26C G30A C45A, the self-cleavage was found to be 0.01.

For the variant C15A A16C A26C G30U G33C C37G, the self-cleavage was found to be 0.06.

With A14U C23U C31G, the self-cleavage was 0.05.

As for C15A G33U A41C C46U, the self-cleavage stood at 0.03.

In the case of C15A G36A A41U, the self-cleavage worked out at 0.04.

Take C15A A16G G29U G35U A41G: the self-cleavage turned out to be 0.04.

With C15A G22A A24C G36C U43G, the self-cleavage worked out at 0.

For the variant A14U C18G G19U G30U U43C, the self-cleavage turned out to be 0.03.

With C15A A16C C31U, the self-cleavage is 0.02.

On to C15A A16C G29U, for which the self-cleavage amounted to 0.01.

Regarding C15A G29C G35U C45A, the self-cleavage came out at 0.

As for A14U C15A U32A, the self-cleavage amounted to 0.05.

Take C15A C18U G21A G22U C23A C46G: the self-cleavage worked out at 0.03.

Consider A14U G19A U20C C42U G44U, for which the self-cleavage amounted to 0.06.

On to A14U G27A U32A U34G C46U, for which the self-cleavage was 0.04.

On to A14U G29U U34G G40U C42A, for which the self-cleavage worked out at 0.26.

A14U G17C G22A C23U U28C: the self-cleavage was 0.4.

As to A14U G27U U34G G35U C37A, the self-cleavage is 0.08.

For the variant A14U A24C U43C, the self-cleavage came to 0.05.

On to C15A C23U A24C, for which the self-cleavage was 0.03.

On to A14U A26C G27U G33C G40A C42G, for which the self-cleavage turned out to be 0.02.

Consider A14U C18A G29U C31A C42A, for which the self-cleavage is 0.01.

For A14U C23G C42A, the self-cleavage was 0.1.

For the variant C15A G40U U43C, the self-cleavage is 0.04.

C15A G21A G22U G30C: the self-cleavage is 0.04.

On to A14U G19A G22C G44U, for which the self-cleavage stood at 0.05.

For A14U A24C U38A, the self-cleavage was found to be 0.07.

As to C15A A16U G44U, the self-cleavage came out at 0.01.

Turning to C15A G19C C37U G40A, the self-cleavage turned out to be 0.04.

In the case of C15A G21U A26U G35C C46A, the self-cleavage was 0.03.

As to C15A A25C A41U, the self-cleavage turned out to be 0.04.

For C15A G19U G21C C37U G40U, the self-cleavage came to 0.05.

On to A14U C18G A25U G33U, for which the self-cleavage amounted to 0.17.

With A14U G35A C46A, the self-cleavage turned out to be 0.08.

Consider C15A G30A G36A, for which the self-cleavage was 0.1.

For the variant A14U A26U G27C, the self-cleavage is 0.02.

For the variant A14U G30A G36U, the self-cleavage came out at 0.05.

As for C15A G36A G44C, the self-cleavage was found to be 0.03.

For the variant A14U A16U G19U, the self-cleavage amounted to 0.05.

For the variant C15A G21U C46A, the self-cleavage is 0.06.

Regarding A14U C15U U38G, the self-cleavage turned out to be 0.04.

With A14U C18A A25U C37G, the self-cleavage was found to be 0.2.

As to C15A A16G G40U, the self-cleavage turned out to be 0.15.

In the case of A14U G29C G30U U38G, the self-cleavage amounted to 0.05.

As for C15A G36U C42U U43C C46A, the self-cleavage stood at 0.03.

As for C15A G27U U28C G30A G35U, the self-cleavage came out at 0.01.

Turning to A14U C18A U34C, the self-cleavage came out at 0.08.

As to A14U G19U G30A, the self-cleavage came to 0.09.

Take A14U G22U C42G: the self-cleavage stood at 0.03.

For A14U G40U U43G C46A, the self-cleavage was found to be 0.02.

For A14U G22U A41U, the self-cleavage was 0.15.

For A14U G21U U32A, the self-cleavage is 0.02.

Turning to C15A G27A G30U C42G, the self-cleavage was 0.05.

With C15A A39C C42A, the self-cleavage was 0.16.

As for C15A C31G U38G, the self-cleavage stood at 0.02.

Consider A14U C15U U28C G36C C46G, for which the self-cleavage turned out to be 0.01.

Turning to A14U C15A G36U G40A, the self-cleavage was found to be 0.07.

On to A14U A16U G30A G36U A39G, for which the self-cleavage amounted to 0.09.

Consider C15A C31A U38A, for which the self-cleavage amounted to 0.01.

Consider A14U A26C A41C U43A C46U, for which the self-cleavage stood at 0.04.

A14U G27U G44A: the self-cleavage was 0.12.

For C15A G19A A24C G36C, the self-cleavage came to 0.03.

With A14U C15A U28G G33C C37U, the self-cleavage was found to be 0.01.

Turning to A14U G19A C31A A41G, the self-cleavage came to 0.01.

For the variant C15A G27A U43G, the self-cleavage worked out at 0.07.

On to C15A G27A U43C, for which the self-cleavage was 0.03.

Regarding C15A A16U G17C C42G U43C, the self-cleavage amounted to 0.01.

Consider A14U A16U U43A, for which the self-cleavage was 0.04.

Regarding C15A G19U G30A G33A, the self-cleavage turned out to be 0.04.

For C15A G21U G36A G44A, the self-cleavage was found to be 0.23.

In the case of A14U G19A A25C, the self-cleavage worked out at 0.15.

Take A14U C15U A16C: the self-cleavage turned out to be 0.07.

On to C15A G21A A41G, for which the self-cleavage turned out to be 0.06.

Consider A14U C18U G19A, for which the self-cleavage came to 0.12.

Take C15A C18G G21U A25G: the self-cleavage was found to be 0.02.

As for A14U C15U G29A C31G, the self-cleavage was found to be 0.02.

A14U G19C U28A C42U G44C: the self-cleavage came out at 0.06.

With A14U A26U C31A C46A, the self-cleavage was 0.05.

Consider C15A G35U G44C, for which the self-cleavage was found to be 0.03.

With C15A G29C G44U, the self-cleavage was 0.02.

In the case of A14U C37A C46U, the self-cleavage is 0.04.

In the case of A14U G21U U38A A41G, the self-cleavage amounted to 0.01.

Turning to C15A G30A C46A, the self-cleavage is 0.09.

Regarding C15A C37U G40U, the self-cleavage amounted to 0.1.

In the case of C15A G19U G36U, the self-cleavage was found to be 0.08.

Consider C15A A26U U28C G30U, for which the self-cleavage turned out to be 0.08.

For the variant A14U G21A C23A U43A C46A, the self-cleavage turned out to be 0.03.

On to A14U C18A G19U C37U G40C, for which the self-cleavage was found to be 0.02.

With A14U U34G C45U, the self-cleavage is 0.29.

A14U A24C A26G U38C: the self-cleavage worked out at 0.09.

C15A G17U C18A G19U C37U: the self-cleavage turned out to be 0.09.

As for C15A G33C G44A C45G, the self-cleavage worked out at 0.01.

For A14U A24U G27C, the self-cleavage is 0.48.

For the variant A14U U20A G21A C31U G40A, the self-cleavage was found to be 0.08.

On to A14U C18A C42U, for which the self-cleavage stood at 0.03.

C15A A26U G36U C37G: the self-cleavage was determined as 0.03.

With C15A C45U C46G, the self-cleavage amounted to 0.04.

As to A14U C18G G36U, the self-cleavage was found to be 0.06.

Regarding A14U C15A U20G G33U C46A, the self-cleavage was 0.04.

On to C15A U20A U38A C45A, for which the self-cleavage turned out to be 0.01.

For the variant A14U C18A G30C U38A, the self-cleavage was determined as 0.09.

With A14U A25G C45A, the self-cleavage was found to be 0.03.

Consider C15A G29U G33U A39C, for which the self-cleavage is 0.04.

As to C15A C23A C42A, the self-cleavage is 0.07.
